We go through one molecule from patent publication US20110135573A1, “METALLOPROTEINASE 9 AND METALLOPROTEINASE 2 BINDING PROTEINS” (DYAX CORP., priority 2009, published 2011).

What all share (assay): Enzyme inhibition assay (single point inhibition, IC50/Ki,app), substrate M-2350
Common to all, as to type: biochemical
Conditions in all cases: light chain shuffled antibodies

Assay [1] has as its target MMP-9 (Homo sapiens, UniProt P14780). Also noted: Human MMP-9 catalytic domain (BIOMOL, SE-244); purchased BIOMOL SE-244. As to the method:
343 unique sFabs from the anti-MMP-9/-2 M237-D02 affinity maturation campaign were discovered by phage display, produced in small scale (6 mL cultures in deep 24-well plates) and screened to select inhibitors with sub-nanomolar potency against the human enzymes and at least single-digit nanomolar potency toward the mouse orthologues. […] Isolates which appeared potent against both human and mouse MMP-2 were then subjected to IC50 analysis against hMMP-9. Sub-nanomolar inhibitors of hMMP-9 were further tested by IC50 analysis against mMMP-9 and h/m MMP-2, if sufficient small-scale sFab material was available. […]
(§1) Human MMP-9 (Biomol #SE-244), mouse MMP-9 (R&D Systems #909-MM-010), human MMP-2 (Biomol #SE-237) and mouse MMP-2 (R&D Systems #924-MP-010) were tested at final concentrations of 1 nM, 0.25-0.4 nM, 2.5 nM and 0.2 nM, respectively. […] Reactions were initiated by the addition of 10 μL of a 10× concentrated stock of substrate, Mca-Lys-Pro-Leu-Gly-Leu-Dap(Dnp)-Ala-Arg-NH2, (Bachem M-2350), at final concentration of 10 μM and monitored at 30° C. in a Molecular Devices' Gemini fluorescence plate reader. […] Kinetic data were acquired by the increase in fluorescence, and initial rates for each condition were plotted against the total inhibitor concentration. […]

The target of assay [2] is T1, human MMP-2 (Homo sapiens, UniProt P08253).
T1 construct: purchased Biomol SE-237
The protocol:
(§2) 343 unique sFabs from the anti-MMP-9/-2 M237-D02 affinity maturation campaign were discovered by phage display, produced in small scale (6 mL cultures in deep 24-well plates) and screened to select inhibitors with sub-nanomolar potency against the human enzymes and at least single-digit nanomolar potency toward the mouse orthologues. […] Isolates which appeared potent against both human and mouse MMP-2 were then subjected to IC50 analysis against hMMP-9. Sub-nanomolar inhibitors of hMMP-9 were further tested by IC50 analysis against mMMP-9 and h/m MMP-2, if sufficient small-scale sFab material was available. Thirteen potential h/m MMP-9/-2 sFab inhibitors were then produced in medium scale (250 mL cultures in flasks) and retested for h/m MMP-9 and h/m MMP-2 inhibition. Five potential lead candidates were reformatted as IgGs and retested in enzyme inhibition assays.
as §1, with “respectively. Target enzymes were incubated with inhibitor for two hours at 30° C. in reaction buffer (50 mM Tris-HCl pH 7.5, 150 mM NaCl, 5 mM CaCl2, 0.05% Brij-35) in a total volume of 90 μL using a white 96 well plate (Costar). Reactions contained 5 μL of small-scale sFab stock solution (average concentration of 500 nM) for single point inhibition analysis or a concentration series of sFab/IgG for IC50 Ki,app determinations.” for “respectively.”

In assay [3] the target is T2, Mouse MMP-9 (Mus musculus, UniProt P41245).
T2 construct: purchased R&D Systems 909-MM (909-MM-010)
The protocol:
as §2
as §1, with “respectively. Target enzymes were incubated with inhibitor for two hours at 30° C. in reaction buffer (50 mM Tris-HCl pH 7.5, 150 mM NaCl, 5 mM CaCl2, 0.05% Brij-35) in a total volume of 90 μL using a white 96 well plate (Costar). Reactions contained 5 μL of small-scale sFab stock solution (average concentration of 500 nM) for single point inhibition analysis or a concentration series of sFab/IgG for IC50 Ki,app determinations.” for “respectively.”

The target of assay [4] is T3, mouse MMP-2 (Mus musculus, UniProt P33434).
T3 construct: purchased R&D Systems 924-MP-010
The protocol:
as §2
as §1, with “respectively. Target enzymes were incubated with inhibitor for two hours at 30° C. in reaction buffer (50 mM Tris-HCl pH 7.5, 150 mM NaCl, 5 mM CaCl2, 0.05% Brij-35) in a total volume of 90 μL using a white 96 well plate (Costar). Reactions contained 5 μL of small-scale sFab stock solution (average concentration of 500 nM) for single point inhibition analysis or a concentration series of sFab/IgG for IC50 Ki,app determinations.” for “respectively.”

T3 sequence (P33434 110-662): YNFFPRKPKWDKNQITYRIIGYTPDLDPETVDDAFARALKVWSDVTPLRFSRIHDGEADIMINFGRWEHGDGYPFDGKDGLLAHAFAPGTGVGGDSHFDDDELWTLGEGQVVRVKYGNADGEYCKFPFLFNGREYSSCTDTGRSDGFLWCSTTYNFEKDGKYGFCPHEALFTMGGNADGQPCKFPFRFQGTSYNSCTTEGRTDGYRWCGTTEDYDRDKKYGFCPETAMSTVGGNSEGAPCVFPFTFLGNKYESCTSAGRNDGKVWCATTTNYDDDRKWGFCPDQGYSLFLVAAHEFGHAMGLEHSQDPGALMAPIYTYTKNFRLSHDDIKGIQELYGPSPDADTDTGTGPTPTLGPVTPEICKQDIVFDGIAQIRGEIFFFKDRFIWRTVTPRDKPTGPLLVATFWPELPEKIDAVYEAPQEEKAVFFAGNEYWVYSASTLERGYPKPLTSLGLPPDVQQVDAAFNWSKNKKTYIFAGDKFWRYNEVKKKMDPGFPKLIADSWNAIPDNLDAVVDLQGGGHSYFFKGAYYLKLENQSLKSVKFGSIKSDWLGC
T2 sequence (P41245 108-730): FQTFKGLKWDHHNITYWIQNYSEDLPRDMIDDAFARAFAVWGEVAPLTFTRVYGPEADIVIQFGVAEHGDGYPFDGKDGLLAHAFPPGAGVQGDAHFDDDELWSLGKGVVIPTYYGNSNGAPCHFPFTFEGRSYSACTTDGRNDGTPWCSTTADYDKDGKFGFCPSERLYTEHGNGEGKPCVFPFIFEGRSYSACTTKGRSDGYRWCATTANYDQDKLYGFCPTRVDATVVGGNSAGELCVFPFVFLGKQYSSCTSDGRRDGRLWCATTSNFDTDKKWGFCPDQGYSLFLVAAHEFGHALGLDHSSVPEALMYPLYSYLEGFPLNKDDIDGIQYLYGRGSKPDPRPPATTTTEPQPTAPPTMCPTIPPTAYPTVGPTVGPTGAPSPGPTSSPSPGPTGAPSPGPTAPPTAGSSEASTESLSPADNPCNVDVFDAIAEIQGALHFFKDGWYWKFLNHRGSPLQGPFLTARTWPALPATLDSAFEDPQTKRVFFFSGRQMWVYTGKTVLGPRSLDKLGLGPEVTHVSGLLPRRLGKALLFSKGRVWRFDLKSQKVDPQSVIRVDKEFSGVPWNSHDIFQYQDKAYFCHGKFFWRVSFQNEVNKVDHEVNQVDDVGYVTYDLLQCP
UniProt P14780, sequence (P14780 107-444 limits assumed): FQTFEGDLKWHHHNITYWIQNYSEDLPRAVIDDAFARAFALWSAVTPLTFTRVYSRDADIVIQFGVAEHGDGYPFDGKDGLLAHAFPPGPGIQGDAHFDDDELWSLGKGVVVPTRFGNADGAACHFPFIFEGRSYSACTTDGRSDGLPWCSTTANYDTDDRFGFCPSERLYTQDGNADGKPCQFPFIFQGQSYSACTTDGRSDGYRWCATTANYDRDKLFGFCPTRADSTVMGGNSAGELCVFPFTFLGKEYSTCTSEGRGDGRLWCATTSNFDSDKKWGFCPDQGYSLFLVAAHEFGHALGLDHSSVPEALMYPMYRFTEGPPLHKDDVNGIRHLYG
T1 sequence (P08253 110-446 limits assumed): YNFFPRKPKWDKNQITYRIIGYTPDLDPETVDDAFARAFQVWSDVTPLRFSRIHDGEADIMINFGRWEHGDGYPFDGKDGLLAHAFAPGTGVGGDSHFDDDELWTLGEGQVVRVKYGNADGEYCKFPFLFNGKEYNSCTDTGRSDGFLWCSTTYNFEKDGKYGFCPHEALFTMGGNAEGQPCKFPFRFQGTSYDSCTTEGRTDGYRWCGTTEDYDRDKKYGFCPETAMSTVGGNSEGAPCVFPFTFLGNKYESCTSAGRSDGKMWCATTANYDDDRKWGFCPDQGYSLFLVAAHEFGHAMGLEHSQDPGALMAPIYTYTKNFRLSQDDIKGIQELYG

B1: M0279-B02: MMP-9 specific antibody from light chain shuffling of M237-D02, sFab (antibody, V domains shown)
VH: EVQLLESGGGLVQPGGSLRLSCAASGFTFSQYPMWWVRQAPGKGLEWVSYIVPSGGRTYYADSVKGRFTISRDNSKNTLYLQMNSLRAEDTAVYYCAKDRAYGDYVGWNGFDYWGQGTLVTVSS
VL: QDIQMTQSPATLSVSPGERATLSCRASQSVSSNLAWYQQKPGQAPRLLIYGASTRATGIPARFSGSGSGTEFTLTISSLQSEDFAVYYCQQRRNWPVTFGQGTRLEII
For the molecule B1, in assay [1], the “inhibition of human MMP-9 (in words)” value is “bind and inhibit”. The “inhibition of human MMP-2 (in words)” value in assay [2] was “do not inhibit”. Moreover, the “inhibition of mouse MMP-9 (in words)” value in assay [3] was “bind and inhibit”. Further, the “inhibition of mouse MMP-2 (in words)” value in assay [4] is recorded as “do not inhibit”.
